In PMC5892938 one finds binding signal (log2 fold change) data, which are given here for 37 sequences.

The list shows a part of the results. At the low end of the ranking, values are background and their order means little.

The target of the experiment is GST-SBP-SLBP (stem-loop binding protein) (UniProt Q14493). Put plainly: targeted RNA Bind-n-Seq.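 Note: DESeq read counts versus GST-SBP nonspecific binding control pulldown.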 The conditions noted are these: RBNS binding buffer: 25 mM Tris pH 7.5, 150 mM KCl, 3 mM MgCl2, 0.1% Tween, 0.5 mg/mL BSA, 1 mM DTT; 27 nM protein, 750 pM RNA pool; temperature not stated; high values mean tight binding.
In the case of “GGUCACGUCUCAAUCAACUCAGUCUCCAGGGAAACCCCUGGUAUAUUCAACAGCUCGCAGUCAAG”, the binding signal (log2 fold change) was -0.0261. To “GGUCACGUCUCAAUCAACUCAUCCUCCAGGGAAACCCCUGGUAAUUUCAACAGCUCGCAGUCAAG” belongs 0.0107. To “GGUCACGUCUCAAUCAACUCAUCCUCCAGGGAAAUCCCUGGUAAUCUCAACAGCUCGCAGUCAAG” belongs -0.0508; to “GGUCACGUCUCAAUCAACUCAUAAGAGGGGGGGAAAACCCCUUUACCCUCGAAUUCAACAGCUCGCAGUCAAG”, -0.391. The figure for “GGUCACGUCUCAAUCAACUCUUUCCCCAGGGAAAUCCCUGGCUAUGUCAACAGCUCGCAGUCAAG” is 0.155; for “GGUCACGUCUCAAUCAACUCAAACGAGGGGGGGAAAACCCCUUUGCCCUCACUAUCAACAGCUCGCAGUCAAG” it is -0.27; for “GGUCACGUCUCAAUCAACUCCAAAGAGGGGGGGAAAACCCCUUUACCCUCCAUCUCAACAGCUCGCAGUCAAG” it is -0.303. For the sequence “GGUCACGUCUCAAUCAACUCAGUUUCCAGGGAAAUCCCUGGCUUUCUCAACAGCUCGCAGUCAAG”, the binding signal (log2 fold change) is 0.0804. As to “GGUCACGUCUCAAUCAACUCAUUCUCCAGGGAAACCCCUGGCUAACUCAACAGCUCGCAGUCAAG”, the binding signal (log2 fold change) is -0.122.

Take “GGUCACGUCUCAAUCAACUCAUCCCCAGGAGUUUACUCCUGUAUUUUCAACAGCUCGCAGUCAAG”: the binding signal (log2 fold change) is -0.0755.

For the sequence “GGUCACGUCUCAAUCAACUCUAUCUCAGGAGUUUCCUCCUGUAUAUUCAACAGCUCGCAGUCAAG”, the binding signal (log2 fold change) came out at 0.251. To “GGUCACGUCUCAAUCAACUCAACAGAGGGGGGGAAAACCCCUUUACCCUCAAAAUCAACAGCUCGCAGUCAAG” belongs 0.167; to “GGUCACGUCUCAAUCAACUCAUCCCCAGGAGUUUUCUCCUGCUAAUUCAACAGCUCGCAGUCAAG”, 0.0546; to “GGUCACGUCUCAAUCAACUCUUCCCCCAGGGAAAGCCCUGGUAUAUUCAACAGCUCGCAGUCAAG”, 0.208. The figure for “GGUCACGUCUCAAUCAACUCAUCUUCAGGAGUUUCCUCCUGCUUUGUCAACAGCUCGCAGUCAAG” is 0.0416; for “GGUCACGUCUCAAUCAACUCAGUUCCAGGAGUUUCCUCCUGUUUAUUCAACAGCUCGCAGUCAAG” it is -0.223. The figure for “GGUCACGUCUCAAUCAACUCUUCUUCCAGGGAAAACCCUGGUUUUUUCAACAGCUCGCAGUCAAG” is -0.0563; for “GGUCACGUCUCAAUCAACUCAACUUCCAGGGAAAGCCCUGGUAAAUUCAACAGCUCGCAGUCAAG” it is -0.146; for “GGUCACGUCUCAAUCAACUCUAUCCCCAGGGAAACCCCUGGCAAUUUCAACAGCUCGCAGUCAAG” it is 0.131.

As for “GGUCACGUCUCAAUCAACUCUUCCCCCAGGGAAAGCCCUGGUAAUGUCAACAGCUCGCAGUCAAG”, the binding signal (log2 fold change) is 0.156. Regarding “GGUCACGUCUCAAUCAACUCAACUUCAGGAGUUUCCUCCUGCUAUGUCAACAGCUCGCAGUCAAG”, the binding signal (log2 fold change) came to 0.231. Take “GGUCACGUCUCAAUCAACUCAGUUUCAGGAGUUUUCUCCUGCAUUUUCAACAGCUCGCAGUCAAG”: the binding signal (log2 fold change) stood at 0.0775. The figure for “GGUCACGUCUCAAUCAACUCAUCUUCCAGGGAAAUCCCUGGUAAUUUCAACAGCUCGCAGUCAAG” is 0.0492; for “GGUCACGUCUCAAUCAACUCAUUCUCCAGGGAAAGCCCUGGCUAUUUCAACAGCUCGCAGUCAAG” it is 0.0292. The figure for “GGUCACGUCUCAAUCAACUCUACUUCAGGAGUUUACUCCUGUAUUUUCAACAGCUCGCAGUCAAG” is -0.161; for “GGUCACGUCUCAAUCAACUCAAACGAGGGGGGGAAAACCCCUUUACCCUCAUUAUCAACAGCUCGCAGUCAAG” it is -0.205; for “GGUCACGUCUCAAUCAACUCUUUCGAGGGGGGGAAAACCCCUUUACCCUCAAUUUCAACAGCUCGCAGUCAAG” it is 0.103. To “GGUCACGUCUCAAUCAACUCUUUCCCCAGGGAAAACCCUGGCAAAUUCAACAGCUCGCAGUCAAG” belongs -0.0629; to “GGUCACGUCUCAAUCAACUCUAAAGAGGGGGGGAAAACCCCUUUGCCCUCACUAUCAACAGCUCGCAGUCAAG”, 0.331. Consider “GGUCACGUCUCAAUCAACUCUACUUCCAGGGAAAUCCCUGGUUUACUCAACAGCUCGCAGUCAAG”, for which the binding signal (log2 fold change) was found to be 0.109. To “GGUCACGUCUCAAUCAACUCCCCAGAGGGGGGGAAAACCCCUUUACCCUCCGUAUCAACAGCUCGCAGUCAAG” belongs -0.0324; to “GGUCACGUCUCAAUCAACUCCACAGAGGGGGGGAAAACCCCUUUACCCUCCACAUCAACAGCUCGCAGUCAAG”, -0.0216; to “GGUCACGUCUCAAUCAACUCACUAGAGGGGGGGAAAACCCCUUUACCCUCAAUAUCAACAGCUCGCAGUCAAG”, 0.176. The figure for “GGUCACGUCUCAAUCAACUCAAUUUCAGGAGUUUGCUCCUGUUUACUCAACAGCUCGCAGUCAAG” is -0.055; for “GGUCACGUCUCAAUCAACUCAUAAGAGGGGGGGAAAACCCCUUUGCCCUCACACUCAACAGCUCGCAGUCAAG” it is -0.253; for “GGUCACGUCUCAAUCAACUCAACGCCAGGAGUUUUCUCCUGUAAUCUCAACAGCUCGCAGUCAAG” it is 0.04. The figure for “GGUCACGUCUCAAUCAACUCUUUCGAGGGGGGGAAAACCCCUUUACCCUCAUACUCAACAGCUCGCAGUCAAG” is 0.524.
